From ChEMBL document CHEMBL4888484, “Replenishing the malaria drug discovery pipeline: Screening and hit evaluation of the MMV Hit Generation Library 1 (HGL1) against asexual blood stage Plasmodium falciparum ,using a nano luciferase reporter read-out” (2022) come the findings set out here.

The structures appear in SMILES notation. The campaign covered roughly 150,000 compounds. About 540 (0.36%) showed an effect of 50% or more. The list shows a part of the results.

The experiment concerns Plasmodium falciparum. As to the kind of experiment: Primary screen in NF54 nanoGlo assay, in single point, at 2uM, 72h; a lower Z score goes with more inhibition. Format: functional, Erythrocyte. The conditions noted are these: timepoint 72 hour.
On to `CC(C)(C)c1ccc(-c2noc3nc(Cc4ccccc4)nc(N4CCCN(C(=O)Nc5cccc(F)c5)CC4)c23)cc1`, for which the % Inhibition (usually the relative decrease from the control value, in per cent) was found to be 6% and the Z score was -0.68.
As to `Cc1cc(C(=O)N2CCCCC2)c2c(=O)n(Cc3cccc(C#N)c3)c(=O)n(-c3ccccc3)c2n1`, the “% Inhibition” value was 2% and the Z score is listed as -0.26.
For `CCOCc1nnc(NCc2cccn2C)o1`, in that order: -8% and 1.49.
In the case of `Cc1c([C@H](C)NCc2cncnc2)oc2ccccc12`, the “% Inhibition” value is -15% and the Z score was 1.68.
In the case of `N#Cc1cc(Br)ccc1N1CC(c2nc(C3CCC3)no2)C1`, the “% Inhibition” value is reported as -12% and the Z score turned out to be 1.56.
In the case of `CCOC(=O)N(C)CC(=O)Nc1cccc(F)c1`, the “% Inhibition” value was -1% and the Z score was found to be 0.08.
Taken in the same sequence, the figures for `Cn1nccc1NC(=O)Cn1ccc(-c2c(F)cccc2F)n1` were -5% and 0.62.
Consider `O=S(=O)(Nc1ccc(-c2ccc[nH]2)cc1)c1ccccc1F`, for which the “% Inhibition” value was -13% and the Z score turned out to be 1.8.
In the case of `O=C(c1ccc(-n2cnnn2)cc1)N1CC2(CCC2)c2c(F)cccc21`, the “% Inhibition” value is given as 7% and the Z score is on record as -0.68.
With `CNC(=O)[C@@H]1CN(C(=O)c2cc(C)n(Cc3ccco3)c2C)C[C@H]1CO`, the “% Inhibition” value is given as -11% and the Z score is 1.66.
As to `N#Cc1ccc(N2CCC(OCCOc3ccccc3)CC2)cn1`, the “% Inhibition” value is on record as -7% and the Z score stood at 0.59.
On to `CCS(=O)(=O)C1CN(C(=O)c2cccn2C2CCCC2)C1`, for which the “% Inhibition” value is listed as -4% and the Z score is on record as 0.63.
For `Cc1cc(N(C)CCCN2CCOCC2)ccn1`, in that order: 8% and -1.12.
On to `N#Cc1cc(F)c(N2CCC(NC(=O)c3ccoc3)CC2)c(F)c1`, for which the “% Inhibition” value is -5% and the Z score is given as 0.64.
Consider `COC1(C(=O)Nc2ccc(Oc3ccc(CO)cc3)cc2)CCC(F)(F)CC1`, for which the “% Inhibition” value is on record as -9% and the Z score was 1.11.
For `O=C1C(NC2CCCn3ccnc32)CCCN1c1ccc(Cl)cc1Cl` (stereo not given), in that order: -7% and 1.16.
In the case of `O=S(=O)(CC1CCOCC1)N[C@@H](c1ccccc1)c1cccnc1`, the “% Inhibition” value is -1% and the Z score amounted to 0.24.
For the molecule `O=C(COc1ccccc1)N1CC[C@H]2[C@H](CCCN2Cc2cccs2)C1`, the “% Inhibition” value is on record as -10% and the Z score came to 1.37.
Consider `O=C(NCCc1ccccc1)N[C@H]1CCCN(c2cc(-c3ccncc3)n[nH]2)C1`, for which the “% Inhibition” value is listed as -4% and the Z score stood at 0.35.
`O=C(c1cnc2ccccn12)N1CCC(c2nc(-c3ccccc3)no2)CC1`: the “% Inhibition” value was found to be 1% and the Z score is on record as -0.12.
Taken in the same sequence, the figures for `O=S(=O)(NCCN1CCn2ccnc2C1)c1ccccc1` were 0% and -0.06.
For `Cc1ncsc1CCC(=O)NCCCc1nnc2ccccn12`, in that order: 8% and -1.06.
Taken in the same sequence, the figures for `C[C@H]1OCC[C@H]1Nc1cc(C#N)ccn1` were -13% and 2.48.
`COc1ccc(COCC(=O)Nc2ccc(CN(C)C)cn2)cc1`: the “% Inhibition” value is -5% and the Z score is 1.
With `CCOc1ccc(CC(=O)Nc2cccc3[nH]ccc23)nc1`, the “% Inhibition” value came out at 1% and the Z score is given as -0.16.
Regarding `CC(C)(C)CC(NC(=O)N1CCC[C@H]1CO)C(F)(F)F` (stereo not given in full), the “% Inhibition” value is -4% and the Z score worked out at 0.69.
Taken in the same sequence, the figures for `O=C1[C@@H]2C(c3ccccc3Cl)=NO[C@@H]2C(=O)N1c1cccc2ccccc12` were 6% and -0.57.
Regarding `Cc1cc(C(=O)Nc2cnns2)n(C)n1`, the “% Inhibition” value was -3% and the Z score is reported as 0.44.
Regarding `CCc1ccc(S(=O)(=O)NC(=O)C2CC3(CCC3)C2)cc1`, the “% Inhibition” value was -1% and the Z score is listed as 0.09.
Regarding `CCOCCC1(CNC2CCCC2C2COCCN2C(=O)OC(C)(C)C)CCCC1` (stereo not given), the “% Inhibition” value is 1% and the Z score is on record as -0.11.
With `CN(CC(C)(CO)CO)C(=O)Nc1cccc(F)c1F`, the “% Inhibition” value is -9% and the Z score is on record as 1.62.
For `Cc1cccc2oc(CNC(=O)CCn3ccc(=O)[nH]c3=O)nc12`, the “% Inhibition” value is -16% and the Z score came out at 2.02.
On to `Cc1nnc2c(NC(=O)NCc3ccco3)cccn12`, for which the “% Inhibition” value is recorded as -21% and the Z score is on record as 4.02.
For `CC(=O)c1cccc(NC(=O)Cn2c(=O)n(-c3ccccc3)c(=O)c3c2cc(C)n3C)c1`, the “% Inhibition” value is reported as -12% and the Z score came out at 1.12.
In the case of `O=C(CN1C(=O)c2ccccc2C1=O)N1CCN(Cc2ccc3c(c2)OCO3)CC1`, the “% Inhibition” value was -9% and the Z score is 1.69.
For `COc1ccc(NS(=O)(=O)c2cc(-c3ccno3)oc2C)cc1`, the “% Inhibition” value was -9% and the Z score came out at 1.07.
In the case of `CC1(C)CCC[C@@](O)(CNc2nc(C3CC3)ns2)C1`, the “% Inhibition” value is given as -4% and the Z score is recorded as 0.35.
On to `CC1(C)C(N)CC1NC(=O)c1cccc(F)c1F` (stereo not given), for which the “% Inhibition” value is -4% and the Z score amounted to 0.66.
For `Cn1cc(NC(=O)NC[C@H]2CCCN2CC(F)(F)F)nn1`, in that order: 6% and -1.16.
Take `O[C@H]1CCCN(c2ccnc(N3CCOc4ccccc4C3)n2)C1`: the “% Inhibition” value is -11% and the Z score is given as 1.43.
For `CCOC(=O)N1CCN(C(=O)Cn2cnc3c(nnn3-c3ccc(OC)c(OC)c3)c2=O)CC1`, in that order: -2% and 0.39.
Turning to `O=C(Nc1cccc(F)c1)C1CCN(C(=O)c2ncccc2O)CC1`, the “% Inhibition” value is reported as -7% and the Z score was 0.92.
For `CCOC(=O)C(=O)NCCN1CCOCC1`, in that order: -2% and 0.29.
For `CNC(=O)c1snc(-c2ccncc2)c1N`, in that order: -2% and 0.18.
Take `COc1ccc(CNC(=O)[C@]2(C)Cn3cnc(C(=O)Nc4ccc(C)cc4)c3C(=O)N2C2CC2)cc1`: the “% Inhibition” value was -3% and the Z score is listed as 0.5.
Take `CCCCn1c(N)c(N(Cc2ccco2)C(=O)COC2CCCC2)c(=O)[nH]c1=O`: the “% Inhibition” value is 5% and the Z score is recorded as -0.7.
Take `COc1ccccc1-n1nc(-c2ccccc2)n(CC(=O)NC2CC2)c1=O`: the “% Inhibition” value was -2% and the Z score worked out at 0.31.
In the case of `CCc1cccc(NC(=O)Cn2c(=O)n(C(C)C)c(=O)c3nscc32)c1`, the “% Inhibition” value is reported as -5% and the Z score was 0.65.
Regarding `CC1(C)C(CNC(=O)C2CS(=O)(=O)CC2C(F)(F)F)C1(C)C` (stereo not given), the “% Inhibition” value amounted to 17% and the Z score was -1.92.
Taken in the same sequence, the figures for `CC(C)CCNC(=O)CN1C(=O)CCn2nc(-c3cccc(Cl)c3)cc21` were -12% and 1.2.
On to `CCN(CCc1nc2ccccc2[nH]1)Cc1nnc(C)s1`, for which the “% Inhibition” value is 5% and the Z score is -0.88.
For `Nc1ccnc(CONC(=O)CCC2CCCCC2)n1`, the “% Inhibition” value was found to be 3% and the Z score is given as -0.53.
As for `O=C(N[C@H]1CCCCNC1=O)c1cc2c(F)cccc2s1`, the “% Inhibition” value is listed as -42% and the Z score is 4.96.
Consider `CCN(C(=O)c1occc1C)c1ccc(Br)cn1`, for which the “% Inhibition” value is -4% and the Z score is 0.49.
Take `Cc1nc(C)c(CNCC2(C#N)CCCCC2)o1`: the “% Inhibition” value is listed as -7% and the Z score is 1.14.
